Experimental data taken from patent publication US20240239863A1, “GIP RECEPTOR AGONIST AND USE THEREOF” (HANGZHOU ZHONGMEIHUADONG PHARMACEUTICAL CO., LTD., priority 2022, published 2024).
At least one structure is not confirmed: it was looked up by name or label, or the drawing left a doubt. Starred links: 1 amine or outer side, 2 acyl side, 3 side chain; linkers in the order of their positions; H or OH if unused. Non-standard residues stand in square brackets, D forms with d. Residues, ends and D or L forms follow the SMILES beside them. Groups on a side chain read outwards from the residue. *: point of attachment. d(γGlu) = O=C(O)[C@@H](CCC(=O)[*:2])N[*:1]; C18 diacid = O=C(O)CCCCCCCCCCCCCCCCC(=O)*; AEEA = NCCOCCOCC(=O)O; Aib = CC(C)(N)C(=O)O

Biological target: hGLP-1R (Homo sapiens, UniProt P43220)
Test: Cell agonistic activity at GLP-1 receptor (Example 7)
Assay type: cell-based
Details: read-out: hGLP-1R EC50

hGLP-1R, sequence (P43220 24-463): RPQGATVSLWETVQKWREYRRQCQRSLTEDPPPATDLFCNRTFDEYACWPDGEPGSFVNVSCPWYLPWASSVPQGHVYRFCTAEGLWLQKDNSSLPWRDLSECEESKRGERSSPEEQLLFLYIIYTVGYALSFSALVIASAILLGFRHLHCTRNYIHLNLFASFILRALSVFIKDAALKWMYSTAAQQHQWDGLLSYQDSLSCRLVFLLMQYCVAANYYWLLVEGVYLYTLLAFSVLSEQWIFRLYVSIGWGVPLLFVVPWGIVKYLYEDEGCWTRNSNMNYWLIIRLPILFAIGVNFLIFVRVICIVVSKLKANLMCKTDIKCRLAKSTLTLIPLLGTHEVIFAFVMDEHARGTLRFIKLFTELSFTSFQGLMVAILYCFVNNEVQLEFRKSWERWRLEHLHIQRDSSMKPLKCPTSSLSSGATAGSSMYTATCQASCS

**Q.** With CC[C@H](C)[C@H](NC(=O)[C@H](CO)NC(=O)[C@H](Cc1ccc(O)cc1)NC(=O)[C@H](CC(=O)O)NC(=O)[C@H](CO)NC(=O)[C@@H](NC(=O)[C@H](Cc1ccccc1)NC(=O)[C@@H](NC(=O)CNC(=O)[C@H](CCC(=O)O)NC(=O)C(C)(C)NC(=O)[C@@H](N)Cc1ccc(O)cc1)[C@@H](C)O)[C@@H](C)CC)C(=O)N[C@@H](C)C(=O)N[C@@H](CC(C)C)C(=O)N[C@@H](CC(=O)O)C(=O)N[C@@H](CCC(=O)O)C(=O)N[C@H](C(=O)N[C@@H](Cc1c[nH]cn1)C(=O)N[C@@H](CCC(N)=O)C(=O)N[C@@H](CCCCNC(=O)COCCOCCNC(=O)COCCOCCNC(=O)CC[C@@H](NC(=O)CCCCCCCCCCCCCCCCC(=O)O)C(=O)O)C(=O)N[C@@H](CC(=O)O)C(=O)N[C@@H](Cc1ccccc1)C(=O)N[C@H](C(=O)N[C@@H](CC(N)=O)C(=O)N[C@@H](Cc1c[nH]c2ccccc12)C(=O)N[C@@H](CC(C)C)C(=O)N[C@@H](CC(C)C)C(=O)N[C@@H](C)C(=O)N[C@@H](CCC(N)=O)C(=O)N[C@@H](CCCNC(=N)N)C(=O)NCC(=O)O)C(C)C)[C@@H](C)CC [Peptide 5] (H-Y[Aib]EGTFISDYSIALDEIHQK([AEEA-AEEA-d(γGlu)-C18 diacid])DFVNWLLAQRG-OH) as the molecule, how does the EC50 read?
**A.** > 0.1 nM

**Q.** Which EC50 does the source give for CC[C@H](C)[C@H](NC(=O)[C@H](CO)NC(=O)[C@H](Cc1ccc(O)cc1)NC(=O)[C@H](CC(=O)O)NC(=O)[C@H](CO)NC(=O)[C@@H](NC(=O)[C@H](Cc1ccccc1)NC(=O)[C@@H](NC(=O)CNC(=O)[C@H](CCC(=O)O)NC(=O)C(C)(C)NC(=O)[C@@H](N)Cc1ccc(O)cc1)[C@@H](C)O)[C@@H](C)CC)C(=O)N[C@@H](C)C(=O)N[C@@H](CC(C)C)C(=O)N[C@@H](CC(=O)O)C(=O)N[C@@H](CCC(=O)O)C(=O)N[C@@H](CC(C)C)C(=O)N[C@@H](Cc1c[nH]cn1)C(=O)N[C@@H](CCC(N)=O)C(=O)N[C@@H](CCCCNC(=O)COCCOCCNC(=O)COCCOCCNC(=O)CC[C@@H](NC(=O)CCCCCCCCCCCCCCCCC(=O)O)C(=O)O)C(=O)N[C@@H](CC(=O)O)C(=O)N[C@@H](Cc1ccccc1)C(=O)N[C@H](C(=O)N[C@@H](CC(N)=O)C(=O)N[C@@H](Cc1c[nH]c2ccccc12)C(=O)N[C@@H](CC(C)C)C(=O)N[C@@H](CC(C)C)C(=O)N[C@@H](C)C(=O)N[C@@H](CCC(N)=O)C(=O)N[C@@H](CCCNC(=N)N)C(=O)NCC(=O)O)C(C)C [Peptide 6] (H-Y[Aib]EGTFISDYSIALDELHQK([AEEA-AEEA-d(γGlu)-C18 diacid])DFVNWLLAQRG-OH) here?
**A.** > 0.1 nM

**Q.** With CC[C@H](C)[C@H](NC(=O)[C@H](CO)NC(=O)[C@H](Cc1ccc(O)cc1)NC(=O)[C@H](CC(=O)O)NC(=O)[C@H](CO)NC(=O)[C@@H](NC(=O)[C@H](Cc1ccccc1)NC(=O)[C@@H](NC(=O)CNC(=O)[C@H](CCC(=O)O)NC(=O)C(C)(C)NC(=O)[C@@H](N)Cc1ccc(O)cc1)[C@@H](C)O)[C@@H](C)CC)C(=O)N[C@@H](C)C(=O)N[C@@H](CC(C)C)C(=O)N[C@@H](CC(=O)O)C(=O)N[C@@H](CCCCNC(=O)COCCOCCNC(=O)COCCOCCNC(=O)CC[C@@H](NC(=O)CCCCCCCCCCCCCCCCC(=O)O)C(=O)O)C(=O)N[C@@H](CC(C)C)C(=O)N[C@@H](Cc1c[nH]cn1)C(=O)N[C@@H](CCC(N)=O)C(=O)N[C@@H](CCC(N)=O)C(=O)N[C@@H](CC(=O)O)C(=O)N[C@@H](Cc1ccccc1)C(=O)N[C@H](C(=O)N[C@@H](CC(N)=O)C(=O)N[C@@H](Cc1c[nH]c2ccccc12)C(=O)N[C@@H](CC(C)C)C(=O)N[C@@H](CC(C)C)C(=O)N[C@@H](C)C(=O)N[C@@H](CCC(N)=O)C(=O)N[C@@H](CCCNC(=N)N)C(=O)NCC(=O)O)C(C)C [Peptide 8, N-{ε-16}-18-{[(23R)-23-carboxyl-2,11,20-trioxo-10,19-diaza-4,7,13,16-tetraoxatricosyl-23-yl]amino}-18-oxooctadecanoic acid acetyl-[Aib2, L14, L17, R30]-hGIP(1-31)] (H-Y[Aib]EGTFISDYSIALDK([AEEA-AEEA-d(γGlu)-C18 diacid])LHQQDFVNWLLAQRG-OH) as the molecule, how does the EC50 read?
**A.** > 0.1 nM

**Q.** How did the EC50 turn out when CC[C@H](C)[C@H](NC(=O)[C@H](CO)NC(=O)[C@H](Cc1ccc(O)cc1)NC(=O)[C@H](CC(=O)O)NC(=O)[C@H](CO)NC(=O)[C@@H](NC(=O)[C@H](Cc1ccccc1)NC(=O)[C@@H](NC(=O)CNC(=O)[C@H](CCC(=O)O)NC(=O)C(C)(C)NC(=O)[C@@H](N)Cc1ccc(O)cc1)[C@@H](C)O)[C@@H](C)CC)C(=O)N[C@@H](C)C(=O)N[C@@H](CC(C)C)C(=O)N[C@@H](CC(=O)O)C(=O)N[C@@H](CCCNC(=N)N)C(=O)N[C@H](C(=O)N[C@@H](Cc1c[nH]cn1)C(=O)N[C@@H](CCC(N)=O)C(=O)N[C@@H](CCC(=O)O)C(=O)N[C@@H](CC(=O)O)C(=O)N[C@@H](Cc1ccccc1)C(=O)N[C@H](C(=O)N[C@@H](CC(N)=O)C(=O)N[C@@H](Cc1c[nH]c2ccccc12)C(=O)N[C@@H](CC(C)C)C(=O)N[C@@H](CC(C)C)C(=O)N[C@@H](C)C(=O)N[C@@H](CCC(N)=O)C(=O)N[C@@H](CCCCNC(=O)COCCOCCNC(=O)COCCOCCNC(=O)CC[C@@H](NC(=O)CCCCCCCCCCCCCCCCC(=O)O)C(=O)O)C(=O)NCC(=O)O)C(C)C)[C@@H](C)CC [Peptide 12] (H-Y[Aib]EGTFISDYSIALDRIHQEDFVNWLLAQK([AEEA-AEEA-d(γGlu)-C18 diacid])G-OH) was run?
**A.** > 0.1 nM

**Q.** How did the EC50 turn out when CC[C@H](C)[C@H](NC(=O)[C@H](CO)NC(=O)[C@H](Cc1ccc(O)cc1)NC(=O)[C@H](CC(=O)O)NC(=O)[C@H](CO)NC(=O)[C@@H](NC(=O)[C@H](Cc1ccccc1)NC(=O)[C@@H](NC(=O)CNC(=O)[C@H](CCC(=O)O)NC(=O)C(C)(C)NC(=O)[C@@H](N)Cc1ccc(O)cc1)[C@@H](C)O)[C@@H](C)CC)C(=O)N[C@@H](C)C(=O)N[C@@H](CC(C)C)C(=O)N[C@@H](CC(=O)O)C(=O)N[C@@H](CCCNC(=N)N)C(=O)N[C@H](C(=O)N[C@@H](Cc1c[nH]cn1)C(=O)N[C@@H](CCC(N)=O)C(=O)N[C@@H](CCC(N)=O)C(=O)N[C@@H](CC(=O)O)C(=O)N[C@@H](Cc1ccccc1)C(=O)N[C@H](C(=O)N[C@@H](CCCCNC(=O)COCCOCCNC(=O)COCCOCCNC(=O)CC[C@@H](NC(=O)CCCCCCCCCCCCCCCCC(=O)O)C(=O)O)C(=O)N[C@@H](Cc1c[nH]c2ccccc12)C(=O)N[C@@H](CC(C)C)C(=O)N[C@@H](CC(C)C)C(=O)N[C@@H](C)C(=O)N[C@@H](CCC(N)=O)C(=O)N[C@@H](CCCNC(=N)N)C(=O)NCC(=O)O)C(C)C)[C@@H](C)CC [Peptide 13] (H-Y[Aib]EGTFISDYSIALDRIHQQDFVK([AEEA-AEEA-d(γGlu)-C18 diacid])WLLAQRG-OH) was run?
**A.** > 0.1 nM

**Q.** With CC[C@H](C)[C@H](NC(=O)[C@H](CO)NC(=O)[C@H](Cc1ccc(O)cc1)NC(=O)[C@H](CC(=O)O)NC(=O)[C@H](CO)NC(=O)[C@@H](NC(=O)[C@H](Cc1ccccc1)NC(=O)[C@@H](NC(=O)CNC(=O)[C@H](CCC(=O)O)NC(=O)C(C)(C)NC(=O)[C@@H](N)Cc1ccc(O)cc1)[C@@H](C)O)[C@@H](C)CC)C(=O)N[C@@H](C)C(=O)N[C@@H](CC(C)C)C(=O)N[C@@H](CC(=O)O)C(=O)N[C@@H](CCCNC(=N)N)C(=O)N[C@@H](CC(C)C)C(=O)N[C@@H](Cc1c[nH]cn1)C(=O)N[C@@H](CCC(N)=O)C(=O)N[C@@H](CCC(=O)O)C(=O)N[C@@H](CC(=O)O)C(=O)N[C@@H](Cc1ccccc1)C(=O)N[C@H](C(=O)N[C@@H](CCCCNC(=O)COCCOCCNC(=O)COCCOCCNC(=O)CC[C@@H](NC(=O)CCCCCCCCCCCCCCCCC(=O)O)C(=O)O)C(=O)N[C@@H](Cc1c[nH]c2ccccc12)C(=O)N[C@@H](CC(C)C)C(=O)N[C@@H](CC(C)C)C(=O)N[C@@H](C)C(=O)N[C@@H](CCC(N)=O)C(=O)N[C@@H](CCCNC(=N)N)C(=O)NCC(=O)O)C(C)C [Peptide 15] (H-Y[Aib]EGTFISDYSIALDRLHQEDFVK([AEEA-AEEA-d(γGlu)-C18 diacid])WLLAQRG-OH) as the molecule, how does the EC50 read?
**A.** > 0.1 nM

**Q.** CC[C@H](C)[C@H](NC(=O)[C@H](CO)NC(=O)[C@H](Cc1ccc(O)cc1)NC(=O)[C@H](CC(=O)O)NC(=O)[C@H](CO)NC(=O)[C@@H](NC(=O)[C@H](Cc1ccccc1)NC(=O)[C@@H](NC(=O)CNC(=O)[C@H](CCC(=O)O)NC(=O)C(C)(C)NC(=O)[C@@H](N)Cc1ccc(O)cc1)[C@@H](C)O)[C@@H](C)CC)C(=O)N[C@@H](C)C(=O)N[C@@H](CC(C)C)C(=O)N[C@@H](CC(=O)O)C(=O)N[C@@H](CCCNC(=N)N)C(=O)N[C@@H](CC(C)C)C(=O)N[C@@H](Cc1c[nH]cn1)C(=O)N[C@@H](CCC(N)=O)C(=O)N[C@@H](CCC(=O)O)C(=O)N[C@@H](CC(=O)O)C(=O)N[C@@H](Cc1ccccc1)C(=O)N[C@H](C(=O)N[C@@H](CC(N)=O)C(=O)N[C@@H](Cc1c[nH]c2ccccc12)C(=O)N[C@@H](CC(C)C)C(=O)N[C@@H](CC(C)C)C(=O)N[C@@H](C)C(=O)N[C@@H](CCC(N)=O)C(=O)N[C@@H](CCCCNC(=O)COCCOCCNC(=O)COCCOCCNC(=O)CC[C@@H](NC(=O)CCCCCCCCCCCCCCCCC(=O)O)C(=O)O)C(=O)NCC(=O)O)C(C)C [Peptide 16] (H-Y[Aib]EGTFISDYSIALDRLHQEDFVNWLLAQK([AEEA-AEEA-d(γGlu)-C18 diacid])G-OH) was tested. Which EC50 did it give?
**A.** > 0.1 nM

**Q.** For CC[C@H](C)[C@H](NC(=O)[C@H](CO)NC(=O)[C@H](Cc1ccc(O)cc1)NC(=O)[C@H](CC(=O)O)NC(=O)[C@H](CO)NC(=O)[C@@H](NC(=O)[C@H](Cc1ccccc1)NC(=O)[C@@H](NC(=O)CNC(=O)[C@H](CCC(=O)O)NC(=O)C(C)(C)NC(=O)[C@@H](N)Cc1ccc(O)cc1)[C@@H](C)O)[C@@H](C)CC)C(=O)N[C@@H](C)C(=O)N[C@@H](CC(C)C)C(=O)N[C@@H](CC(=O)O)C(=O)N[C@@H](CCCNC(=N)N)C(=O)N[C@@H](CC(C)C)C(=O)N[C@@H](Cc1c[nH]cn1)C(=O)N[C@@H](CCC(N)=O)C(=O)N[C@@H](CCC(N)=O)C(=O)N[C@@H](CC(=O)O)C(=O)N[C@@H](Cc1ccccc1)C(=O)N[C@H](C(=O)N[C@@H](CCCCNC(=O)COCCOCCNC(=O)COCCOCCNC(=O)CC[C@@H](NC(=O)CCCCCCCCCCCCCCCCC(=O)O)C(=O)O)C(=O)N[C@@H](Cc1c[nH]c2ccccc12)C(=O)N[C@@H](CC(C)C)C(=O)N[C@@H](CC(C)C)C(=O)N[C@@H](C)C(=O)N[C@@H](CCC(N)=O)C(=O)N[C@@H](CCCNC(=N)N)C(=O)NCC(=O)O)C(C)C [Peptide 17] (H-Y[Aib]EGTFISDYSIALDRLHQQDFVK([AEEA-AEEA-d(γGlu)-C18 diacid])WLLAQRG-OH), which EC50 is on record?
**A.** > 0.1 nM
